Measured values: publication PMC4336329 (PLoS ONE, 2015)
Out of some 310,000 compounds screened, about 14,000 (4.5%) showed an effect of 50% or more. The effect is printed as a negative number. The list shows a part of the results.

target: human ether-à-go-go-related gene (hERG) potassium channel (human, UniProt Q12809); assay: primary screen, population patch clamp on CHO cells stably expressing hERG
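Note: peak tail current of the secondary pulse compared with the same well before compound.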

human ether-à-go-go-related gene (hERG) potassium channel, sequence (Q12809 whole entry, looked up): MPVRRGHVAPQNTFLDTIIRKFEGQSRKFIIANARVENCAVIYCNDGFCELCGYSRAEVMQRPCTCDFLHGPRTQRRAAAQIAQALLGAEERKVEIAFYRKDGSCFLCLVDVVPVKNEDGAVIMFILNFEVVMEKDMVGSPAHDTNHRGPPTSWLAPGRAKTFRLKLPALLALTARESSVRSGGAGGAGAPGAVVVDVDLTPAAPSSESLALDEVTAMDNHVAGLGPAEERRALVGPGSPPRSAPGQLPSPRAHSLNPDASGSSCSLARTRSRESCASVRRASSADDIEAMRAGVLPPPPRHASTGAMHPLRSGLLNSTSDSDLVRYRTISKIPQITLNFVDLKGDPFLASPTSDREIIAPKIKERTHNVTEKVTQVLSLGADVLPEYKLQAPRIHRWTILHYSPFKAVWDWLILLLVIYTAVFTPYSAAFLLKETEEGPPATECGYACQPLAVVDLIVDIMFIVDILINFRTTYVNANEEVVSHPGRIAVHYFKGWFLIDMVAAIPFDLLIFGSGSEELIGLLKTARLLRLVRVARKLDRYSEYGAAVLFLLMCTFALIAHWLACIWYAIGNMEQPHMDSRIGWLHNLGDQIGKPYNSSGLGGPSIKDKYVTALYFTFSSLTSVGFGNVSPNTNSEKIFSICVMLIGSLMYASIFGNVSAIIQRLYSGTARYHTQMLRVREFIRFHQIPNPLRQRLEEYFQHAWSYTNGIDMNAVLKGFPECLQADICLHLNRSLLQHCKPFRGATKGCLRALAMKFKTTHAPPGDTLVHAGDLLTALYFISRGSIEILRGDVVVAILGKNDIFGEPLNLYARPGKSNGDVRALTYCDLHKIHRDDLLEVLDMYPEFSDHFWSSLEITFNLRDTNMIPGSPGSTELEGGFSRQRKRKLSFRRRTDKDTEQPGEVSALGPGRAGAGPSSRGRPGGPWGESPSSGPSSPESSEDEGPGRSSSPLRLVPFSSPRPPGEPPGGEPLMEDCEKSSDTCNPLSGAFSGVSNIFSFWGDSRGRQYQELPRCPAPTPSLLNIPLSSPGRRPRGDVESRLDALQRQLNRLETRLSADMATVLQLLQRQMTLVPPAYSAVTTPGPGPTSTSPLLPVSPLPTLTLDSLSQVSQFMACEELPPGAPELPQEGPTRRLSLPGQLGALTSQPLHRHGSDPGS

| SMILES | hERG current change (%, negative = inhibition) at 10uM [%] |
| --- | --- |
| Cc1cc2nc(N)sc2cc1C | 7.23 |
| C[C@H]1CN=C(Nc2ccccc2)N1CC1CCCCCC1 | -24.5 |
| OC(CCNCCc1c[nH]c2ccccc12)C(F)(F)Cl (stereo not drawn) | -6.51 |
| COc1cccc(C(=O)Nc2ccc(C)cc2)c1 | -4.91 |
| O=c1[nH][nH]c(-c2ccccc2)c1C=Nc1ccc(Cl)cc1 | -23 |
| O=C(CCn1nnc2ccccc21)OCC(=O)c1ccc(F)cc1 | 1.38 |
| C/C=C/c1ccc(OC)c(OC(C)=O)c1 | 6.06 |
| Brc1ccccc1-n1nnc(-c2nccs2)n1 | 2.65 |
| O=C(Nc1ccc(S(=O)(=O)N2CCCC2)cc1)C1COc2ccccc2O1 (stereo not drawn) | 13 |
| CCC(C)(C(=O)NC1CCCC1)N(Cc1cccs1)C(=O)Cc1cccs1 (stereo not drawn) | -22.4 |
| Cn1c(=O)oc2cc(S(=O)(=O)N3CCOCC3)ccc21 | 4.59 |
| Cc1oc(-c2cc3c(cc2Cl)OCO3)nc1CN1CCCC(C(=O)N2CCOCC2)C1 (stereo not drawn) | -24.7 |
| CCOC(=O)N1CCC(N2Cc3cccc(C(=O)Nc4ccc(OC)c(OC)c4)c3C2=O)CC1 | -9.58 |
| O=C(NCc1ccco1)c1ccc(OCC2CCCO2)cc1 (stereo not drawn) | -23.2 |
| Cn1c(=O)c(=O)n(C)c2cc(S(=O)(=O)N3CCOCC3)ccc21 | -4.27 |
| Fc1ccccc1Cn1nnc(-c2ccc3c(c2)OCO3)n1 | -1.33 |
| CC(C)c1ccc2oc(-c3ccc(N)cc3)nc2c1 | 17.9 |
| Cc1ccc(/C=C/C(=O)Nc2nccs2)o1 | -2.87 |
| Cc1ccn(CC(=O)N/N=C/c2cc([N+](=O)[O-])ccc2O)n1 | 6.53 |
| Cc1ccc2nccc(C(=O)N3CCCC(N4CCN(c5ccc(F)cc5)CC4)C3)c2c1 (stereo not drawn) | -48.5 |
| Cc1cccc(Cn2c(C(=O)OC(C)C)cc3c2ccn3C)c1 | 6.07 |
| Cc1ccc(C)c(Cn2c3ccccc3c3cnn(CC(=O)NCCCN4CCOCC4)c(=O)c32)c1 | -49.7 |
| CN1CCN(C(=S)c2ccc(Cl)cc2)CC1 | 3.39 |

| SMILES | hERG current change (%, negative = inhibition) at 10uM [%] |
| --- | --- |
| COc1ccc([C@H]2Oc3cc(O)cc(O)c3C(=O)C2[C@@H]2C(=O)c3c(O)cc(O)cc3O[C@@H]2c2ccc(OC)cc2)cc1 (stereo partly drawn) | 16.9 |
| CC(=O)NC(c1cc(Cl)c2cccnc2c1O)C(C)C (stereo not drawn) | -17.2 |
| Cn1c(=O)n(C)c2cc(NC(=O)c3ccccc3[N+](=O)[O-])c(Br)cc21 | -26 |
| NNC(=O)c1ccc2[nH]c3c(c2c1)CCCC3 | 5.31 |
| O=C(NCc1ccco1)Nc1ccc2snnc2c1 | 2.51 |
| Cc1c(C(=O)c2ccc([N+](=O)[O-])cc2)c(=O)n(C)c(=O)n1C | -26 |
| O=C(Cn1c(=O)c2cccn2c2ccc(F)cc21)N1CCN(c2ccc(F)cc2)CC1 | 9.04 |
| Cc1nc(C)c(-c2ccc(SCC(=O)Nc3ccc(F)cc3F)nn2)s1 | -6.6 |
| CCn1c(SCC(=O)NCc2ccco2)nc2ccccc2c1=O | -34.4 |
| O=C(NCc1cccnc1)c1ccc(Br)o1 | 24.2 |
| CCN(CC)C(=O)COc1ccc2c(-c3ccc(OC)cc3)cc(=O)oc2c1 | -5.33 |
| O=C(CCSc1ccc(Cl)cc1)N1CCOCC1 | 0.93 |
| COc1ccc(N2CCN(C(=O)c3oc4ccccc4c3NC(=O)CCc3cc(OC)no3)CC2)cc1 | -10.4 |
| Cc1csc(NC(=O)CSc2nccn2Cc2ccco2)n1 | 4.55 |
| O=C(NCCNc1ccc2ccccc2c1)c1cccn2c(=O)c3sccc3nc12 | -6.94 |
| CC(=O)N1CCN(c2ccc(NC(=S)NC(=O)COc3ccc(C(C)(C)C)cc3)cc2)CC1 | 0.854 |
| Cc1nc2ncnn2c(C)c1CCC(=O)N1CCC2(CC1)OCCO2 | 4.5 |
| CC1CCN(c2c(NCc3ccc(C(=O)NCCc4ccc(Cl)cc4)cc3)c(=O)c2=O)CC1 | -5.91 |
| Cc1ccc2c(c1)C1CN(C)CCC1N2C(=O)c1ccccc1NS(=O)(=O)c1cccc(C(F)(F)F)c1.Cl (stereo not drawn) | -48.5 |
| O=C(NNC1OC(CO)C(O)C(O)C1O)c1cccc(Br)c1 (stereo not drawn) | 12.9 |
| Cc1ccc(NC(=O)c2ccc3c(c2)N(CC(=O)NC(C)C)C(=O)C(C)(C)O3)cc1 | 18.2 |
| COc1ccc(CC(=O)OCc2nnc(-c3ccccc3)o2)cc1 | 16 |
